# In PubChem BioAssay AID504832 (National Center for Advancing Translational Sciences (NCATS), 2011):
# Several values for one entry are separate records, joined by “and”; a condition that tells them apart may be missing. Equal entries are not always repeated. Hit rate of the full screen: of about 310,000 compounds, about 18,000 (5.8%) were called active. Inconclusive results, whose numbers are uncertain, are shown with a selection of clear calls. Calls follow the shape of the dose curve; as a rule, active = well fitted inhibition curve with a large enough effect; inconclusive = small, poorly fitted or top-dose-only effect, or another doubt; inactive = no such curve, though single readings can be large or run the other way. Potencies of inconclusive entries are left out as doubtful fits.
# Test: Primary qHTS for delayed death inhibitors of the malarial parasite plastid, 48 hour incubation
# Settings: P. falciparum luciferase growth in erythrocytes; series mostly up to 28.7 µM
# Method in brief: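 Luciferase-expressing parasites in RBCs, 2% Hct / 0.1% parasitemia final; RPMI 1640 + 0.5% Albumax; 37 C, 5% CO2, one generation; luminescence read-out, lower signal = inhibition.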
# Potency is read from the fitted curve at half-maximal effect; tags tell the direction and shape of the fitted curve.
row,SMILES,Potency
1,COc1ccc(CN2C(=O)c3ccccc3C2=O)cc1C(=O)N(C)CC(=O)Nc1c(C)cccc1C,"inconclusive [inhibitor, single point]"
2,CC1CCN(S(=O)(=O)c2ccc3c(c2)N(CC(=O)NCCCN2CC(C)CC(C)C2)C(=O)CS3)CC1 (stereo unspecified),"inconclusive [inhibitor, single point]"
3,COCCNC(=O)[C@@]1(C)C=C[C@@H](Cc2ccccc2)N1C(=O)c1ccccc1,"inconclusive [inhibitor, partial curve, poor fit]"
4,CCC(Oc1ccc(F)cc1)C(=O)N1CCCCCCC1 (stereo unspecified),inactive
5,CS(=O)(=O)c1cccc(-c2nnc(NC(=O)CCS(=O)(=O)c3ccccc3)o2)c1,"inconclusive [inhibitor, single point]"
6,C=CCNCCCCOc1c(Cl)cc(C)cc1Br,active: 9.28 µM
7,O=C(NCCN1C(=O)S/C(=C\c2ccccc2Cl)C1=O)C1=COCCO1,"inconclusive [inhibitor, single point]"
8,CCCCN1C2=C(C(=O)CCC2)C(c2ccc(Cl)c(Cl)c2)C2=C1c1ccccc1C2=O (stereo unspecified),"inconclusive [inhibitor, single point]"
9,CCCC[C@@H](CNC)NC[C@H](Cc1ccc(O)cc1)NCCc1ccc(OCC)cc1,active: 2.62 µM
10,COc1cc2nc(N(C)C)nc(N)c2cc1OC,"inconclusive [inhibitor, partial curve, poor fit]"
11,Cc1ccc2c(c1)-c1c(cnn1CC(=O)N(Cc1ccco1)C1CCCCC1)CO2,"inconclusive [inhibitor, single point]"
12,O=C(Cn1cc(S(=O)(=O)N2CCN(c3ccccc3F)CC2)c2ccccc2c1=O)NCCCN1CCCCCC1,"inconclusive [inhibitor, single point]"
13,COC(=O)[C@@]1(Cc2ccc(F)cc2)[C@H]2c3cc(C(=O)N(C)C)n(CCSCCO)c3C[C@H]2CN1C(=O)c1ccccc1,active: 6.57 µM
14,Cc1ccc(S(=O)(=O)N(CC(=O)Nc2cccc([N+](=O)[O-])c2)C(=O)N2CCN(C)CC2)cc1,"inconclusive [inhibitor, partial curve, poor fit]"
15,Cc1ccc(Nc2nc(N)nc(CSc3nccn3C)n2)c(C)c1,inactive
16,c1ccc(CNc2cnccn2)cc1,inactive
17,CN1C2C=C3C(C#N)=C(N)C(C#N)(C#N)[C@@H](c4cccc(F)c4)[C@@H]3C1CC2 (stereo partly specified),"inconclusive [inhibitor, full curve]"
18,Cc1ccc(S(=O)(=O)N(Cc2n[nH]c(=S)n2-c2ccccc2)c2cccc(Cl)c2)cc1,"inconclusive [inhibitor, partial curve]"
19,COc1ccc(C2CC(C(F)(F)F)n3nc(C(=O)N(C)Cc4cn(C)nc4C)c(Cl)c3N2)cc1 (stereo unspecified),active: 14.7 µM
20,Cc1ccc(C)c(CSc2nnc(-c3cccs3)n2Cc2ccco2)c1,"inconclusive [inhibitor, partial curve, poor fit]"
21,COc1ccc(N/C=C\C(=O)c2ccc(C)cc2)cc1OC,inactive
22,N#CCC(CNc1ncc(C(F)(F)F)cc1Cl)OC(=O)c1cccc(C(F)(F)F)c1 (stereo unspecified),"inconclusive [inhibitor, partial curve, poor fit]"

row,SMILES,Potency
1,CCOP(=O)(OCC)C(Nc1cccc(C(F)(F)F)c1)c1ccc(C)cc1 (stereo unspecified),active: 10.4 µM
2,COc1ccc(CN2CCN(c3cc(C)nc4c5c(C)cc(C)nc5nn34)CC2)cc1F,"inconclusive [inhibitor, full curve]"
3,CC(=O)Nc1sc(N/N=C\c2ccccc2)nc1-c1cccs1,"inconclusive [inhibitor, single point]"
4,O=C(NCC(c1ccccc1Cl)N1CCCC1)c1ccc(N2CCCC2=O)cc1 (stereo unspecified),"inconclusive [inhibitor, partial curve, poor fit]"
5,Cc1c(C=O)c2ccccn2c1C(=O)c1cccs1,"inconclusive [inhibitor, partial curve, poor fit]"
6,CCOC(=O)NC(=O)CSc1nc(C)cc(C(F)(F)F)c1C#N,inactive
7,COCCCN1C(=O)C(=O)/C(=C(/O)c2ccc(C)cc2)C1/C=C/c1ccccc1 (stereo unspecified),inactive
8,O=C(O)Cn1cc(/C=C/[N+](=O)[O-])c2ccccc21,inactive
9,COc1ccc(CN2C(=O)NC3(CCCc4ccccc43)C2=O)cc1F (stereo unspecified),"inconclusive [inhibitor, single point]"
10,CCOC(=O)C1=CC(=C2C(=O)N(CC)C(=S)N(CC)C2=O)c2ccccc2O1,"inconclusive [inhibitor, partial curve, poor fit]"
11,COc1ccc(-c2csc(NC(=O)CSc3n[nH]c(C)n3)n2)cc1,inactive
12,Cc1cc(C)cc(NC(=S)Nc2cccc3cnccc23)c1,active: 2.08 µM
13,O=C(CN(c1ccc(F)cc1)S(=O)(=O)c1ccccc1)NC1CC2CCC1C2 (stereo unspecified),"inconclusive [inhibitor, partial curve, poor fit]"
14,O=C(CCC(=O)N(CC(=O)NC1CCCC1)C1CCCCC1)Nc1ccccn1,"inconclusive [inhibitor, single point]"
15,CC(C)CC(=O)Nc1ccc(S(=O)(=O)Nc2nccs2)cc1,inactive
16,CCC(=O)Nc1ccc(S(=O)(=O)c2ccc(NC(=O)CC)cc2)cc1,inactive
17,Cc1ccc(NS(=O)(=O)c2ccc(C)c(C(=O)NCC(c3ccccc3)N(C)C)c2)cc1 (stereo unspecified),"inconclusive [inhibitor, single point]"
18,C=CCn1c(C)cc(C(=O)COC(=O)C2CC(=O)N(Cc3ccccc3)C2)c1C (stereo unspecified),inactive
19,CC(=O)Oc1ccc2ccccc2c1C(NC(=O)Cc1ccccc1)c1ccccc1 (stereo unspecified),active: 4.15 µM
20,[O-][n+]1onc2c1CCc1[nH]c(-c3ccccc3)nc1-2,"inconclusive [inhibitor, full curve, poor fit]"
21,COc1ccccc1N1CCN(C(CNS(=O)(=O)c2cccs2)c2cccnc2)CC1 (stereo unspecified),active: 10.4 µM
22,CN(CC(=O)Nc1ccc(F)c(F)c1F)C(=O)c1ccc2c(c1)NC(=O)CS2,"inconclusive [inhibitor, partial curve, poor fit]"

row,SMILES,Potency
1,COc1ccccc1NS(=O)(=O)c1cccc(C(=O)N/N=C(\C)c2ccncc2)c1,"inconclusive [inhibitor, single point]"
2,COc1ccc(C(=O)N/C(=C\c2cn(S(=O)(=O)N(C)C)c3ccccc23)C(=O)N2CCN(C)CC2)cc1,"inconclusive [inhibitor, partial curve]"
3,O=C(NNC(=O)c1cc(OCC(F)(F)F)ccc1OCC(F)(F)F)c1ccc(Cl)c(Cl)c1,"inconclusive [inhibitor, single point]"
4,Cc1ccc(N=Nc2cc(C)ccc2O)c(C)c1,inactive
5,Nn1c(Cc2ccccc2F)nnc1SCC(=O)Nc1cccc(S(=O)(=O)NC2=NCCCCC2)c1,"inconclusive [inhibitor, single point]"
6,COc1ccc2c(c1)OC[C@H]1[C@H]2N2C(=O)CN(Cc3ccc(C)cc3)C(=O)[C@@]2(C)[C@H]1c1ccccc1,"inconclusive [inhibitor, partial curve]"
7,O=C(Nc1ccc(Cl)cc1)c1cccc(OC(=S)N2CCOCC2)c1,inactive
8,O=C(COC(=O)CSc1ccccc1)NCCNC(=O)COC(=O)CSc1ccccc1,inactive
9,CC(C)c1cc2c(c(O)c1O)[C@@]13CCCC(C)(C)C1CC2OC3=O (stereo partly specified),"inconclusive [inhibitor, single point]"
10,O=C(CCCN1CCC(O)(c2cccc(C(F)(F)F)c2)CC1)c1ccc(F)cc1,active: 13.5 µM and active: 8.28 µM
11,C=CCn1c(CCNC(=O)c2ccccc2F)nnc1SCc1nc2ccccc2c(=O)[nH]1,"inconclusive [inhibitor, partial curve]"
12,Cc1[nH]c(C)c(S(=O)(=O)Nc2ccc(F)cc2Cl)c1C(=O)N1CCCC1,inactive
13,Cc1n(N)c2ccccc2[n+]1CC(=O)c1ccccc1,"inconclusive [inhibitor, full curve]"
14,CCC(Oc1cc(Cl)ccc1Cl)C(=O)NN1C(=O)C2C3CCC(C3=C(C)C)C2C1=O (stereo unspecified),"inconclusive [inhibitor, single point]"
15,O=C(c1ccco1)N1CCN(Cc2cc(=O)c(OCc3cccc(Cl)c3)co2)CC1,"inconclusive [inhibitor, single point]"
16,C/C=C/c1ccc(OCCCCN2CCN(CC)CC2)c(OC)c1,inactive
17,O=C(C[n+]1cc(-c2ccc(Cl)c(Cl)c2)n2c1CCC2)N1c2ccccc2Sc2ccccc21,active: 2.62 µM
18,C/C=C/c1ccc(OCC(O)CNCC(c2ccc(OC)cc2)N(C)C)c(OC)c1 (stereo unspecified),"inconclusive [inhibitor, partial curve, poor fit]"
19,C=C(C)CSc1nnc([C@@H](NC(=O)OC(C)(C)C)C(C)CC)o1 (stereo partly specified),"inconclusive [inhibitor, partial curve]"
20,COc1ccc(/C=N/NC(=O)c2ccn[nH]2)cc1COc1ccc(F)cc1,"inconclusive [inhibitor, single point]"
21,COc1ccc(CCNC(=O)C(=O)NCC2OCCN2S(=O)(=O)c2ccc(OC)c(OC)c2)cc1 (stereo unspecified),"inconclusive [inhibitor, partial curve, poor fit]"
22,CNc1snc(C)c1C(=O)OCC(=O)c1cc(F)ccc1OC,"inconclusive [inhibitor, single point]"
